Reference: PubChem BioAssay AID2546 (National Center for Advancing Translational Sciences (NCATS), 2010)
Screen size: about 310,000 compounds; about 11,000 (3.5%) were called active. Inconclusive means that the source gave no clear call. Such entries were picked first, then a sample of the others. Calls follow the shape of the dose curve; as a rule, active = well fitted inhibition curve with a large enough effect; inconclusive = small, poorly fitted or top-dose-only effect, or effect the other way; inactive = flat fitted curve, though single readings scatter. Potencies of inconclusive entries are left out as doubtful fits.

Test: VP16 counterscreen qHTS for inhibitors of ROR gamma transcriptional activity;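 also: Gal4-VP16 expression switched on by copper sulfate through the metallothionein promoter; nearly all actives have a fitted effect of over 50% in size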
Settings: Drosophila S2 Gal4-VP16 UAS-luciferase, luminescence, 20 h; series mostly up to 53.6 µM
Potency is read from the fitted curve at half-maximal effect; tags tell the direction and shape of the fitted curve.

SMILES | Potency
O=C(CSc1nnc(CNC(=O)c2ccco2)o1)c1ccc(Cl)cc1 | inactive
Cc1ccc(C)c(N2CCN(c3nc4ccccc4c(=O)n3Cc3ccccc3)CC2)c1 | inconclusive [inhibitor, single point]
COc1ccc(-n2c(=S)[nH]c3cc(C(=O)Nc4ccc(F)cc4)ccc3c2=O)c(OC)c1 | active: 17.8 µM
CC(C)Nc1ccc(Nc2ccnc3cc4ccccc4cc23)cc1 | inconclusive [inhibitor, partial curve]
Oc1ccc2ccccc2c1CNc1ccc(Br)cc1 | inconclusive [inhibitor, single point]
CCc1nnc(NC(=O)CSc2nnc(-c3ccccc3NC(=O)c3ccccc3)o2)s1 | active: 3.55 µM
O=C(NC1CCCCC1)C(c1cccnc1)N(C(=O)CCl)c1ccc(F)cc1 (centres undefined) | inconclusive [inhibitor, single point]
CC(C)c1ccc2c(c1)[C@H]1OCC[C@H]1[C@@H](c1cccs1)N2 | inconclusive [inhibitor, single point]
CC(=O)Oc1ccc(C(=O)Nc2ccc3c(c2)OCCO3)cc1 | inactive
Cc1ccc(C(C)C)c(OCc2ccc(C(=O)N/N=C/c3ccc(O)c(O)c3)cc2)c1 | active: 35.5 µM
Fc1ccc(CNC(=S)Nc2ccc(OC(F)F)cc2)cc1 | inconclusive [inhibitor, single point]
Cc1ccccc1S(=O)(=O)Cc1ccc(C(=O)NCCc2ccccc2)o1 | inconclusive [inhibitor, single point]
COc1cc(C2=NOC(C(=O)NCc3ccc(F)cc3)C2)cc(OC)c1OC (centres undefined) | inactive
CN1CCC(N(C)C(=S)NC(=O)C23CC4CC(CC(C4)C2)C3)CC1 | inconclusive [inhibitor, single point]
CCc1sc(C(=O)NCCc2ccc(S(N)(=O)=O)cc2)cc1C | inactive
CCOC(=O)N1CCC(Nc2ncnc3c2cnn3-c2ccccc2)CC1 | inconclusive [activator, single point]
CCCCN=Cc1c(C)[nH]n(-c2ccccc2)c1=S | active: 2.51 µM
COc1cccc(/C=N/NC(=O)CNC(=O)c2ccncc2)c1O | inconclusive [inhibitor, single point]
CN(Cc1ccccc1)c1ccc(C(CC(N)=O)NC(=O)Cc2ccc(Br)cc2)cc1[N+](=O)[O-] (centres undefined) | inconclusive [inhibitor, single point]
COC(=O)C1=C(C)N(Cc2ccccc2)C(=NCC2CC2)N[C@H]1c1ccc(Br)cc1 | inconclusive [inhibitor, single point]
CC(=O)c1c(O)cc2n(c1=O)-c1ccc(Cl)cc1C2(C)C | inconclusive [inhibitor, single point]
O=C(N/N=C/c1ccc(Br)s1)c1cccnc1 | active: 15.8 µM
N#Cc1ccccc1NC(=O)CSc1cn[nH]n1 | inactive
CCCNC(=O)/C(C#N)=C1\N=C(NC(=O)c2cccs2)c2ccccc21 | inconclusive [inhibitor, single point]
NS(=O)(=O)c1ccc(CCNC(=O)c2ccc[nH]c2=S)cc1 | active: 11.2 µM
Cc1cccc(C(=O)Nc2nc3ccc(S(C)(=O)=O)cc3s2)c1 | inconclusive [inhibitor, single point]
S=C(NC1CCCCCC1)NC1CCCC1 | active: 10 µM

SMILES | Potency
CCc1noc(C)c1C(=O)OCC(=O)NC(=O)c1ccccc1OC | inactive
CCOC(=O)CCC(=O)N(CCN(C(=O)CCC(=O)OCC)c1ccccc1)c1ccccc1 | inactive
CCOC(=O)c1c(CSc2ccc(CC)cc2)oc2ccc(O)c(CN(C)C)c12 | inconclusive [inhibitor, single point]
CN(CCO)c1ccc(/C=N/Nc2nncc3ccccc23)cc1 | active: 11.2 µM
Cc1ccsc1C1C(C#N)=C(N)OC2=C1C(=O)CCC2 (centres undefined) | inconclusive [inhibitor, single point]
CCC/C=N/NC(=O)c1cc(-c2ccccc2)nc2ccccc12 | inconclusive [inhibitor, single point]
Cc1ccccc1NC(=O)c1sc2nc3c(c(-c4ccco4)c2c1N)CCC3 | inactive
COc1ccc(C2N=C(c3ccccc3)C(C)(C)N2O)cc1OC (centres undefined) | inactive
CCOC(=O)c1oc2ccccc2c1NC(=O)COc1ccc(F)cc1 | inconclusive [inhibitor, full curve]
O=C(Nc1ccccc1)c1ccn[nH]1 | inconclusive [inhibitor, single point]
COc1ccc(OC)c(NC(=O)C2CC(/C=C/c3ccccc3)=NO2)c1 (centres undefined) | inactive
COc1ccc2oc(=O)c(C(=O)Nc3cccc(C(C)=O)c3)cc2c1 | active: 5.62 µM
Cc1ccccc1-n1c(SCc2csc(Nc3ccccc3)n2)nnc1-c1cccnc1 | inconclusive [inhibitor, single point]
COc1ccc(N=c2ssnc2Cl)cc1 | inconclusive [inhibitor, single point]
O=C(/C=C/c1cccs1)Nc1ccc(Br)cn1 | inactive
O=C(CSCc1ccco1)N1CCc2ccccc21 | inactive
c1ccc(Cc2nc3ccccc3n2Cc2ccccc2)cc1 | active: 17.8 µM
COc1ccc(NC(=O)COC(=O)c2ccco2)c([N+](=O)[O-])c1 | inactive
COc1ccc(N(/N=C2\Sc3ccccc3C2=O)C(C)=O)cc1 | inactive
CC1(C)Cc2ccccc2-c2nc(NCCCO)n(-c3ccccc3)c(=O)c21 | inactive
CC(C)(C)OC(=O)NC1CC2CCCC(C1)N2Cc1ccccc1 (centres undefined) | inactive
OCC1OC([S-])[C@H](O)C(O)C1O.[Au+] (some centres undefined) | active: 6.31 µM
Cc1nn(C)cc1/C=N/NC(=O)C1(O)c2ccccc2-c2ccccc21 | active: 3.55 µM
CCn1c(C)c(/C=N/Nc2nc3ccccc3s2)c2ccccc21 | inconclusive [inhibitor, single point]
COc1cccc(NC(=O)Cn2c3ccccc3c3nc4n(c(=O)c32)CCCS4)c1 | inactive
COc1cccc(NC(=O)N(Cc2ccco2)C(C)c2cccs2)c1 (centres undefined) | inactive
CCN(CC)C(=O)C1CCCN(C(=O)c2oc3ccc(C)cc3c2C)C1 (centres undefined) | inactive

SMILES | Potency
CCOC(=O)NC(O)C(=O)c1ccc(F)cc1 (centres undefined) | inactive
Cc1ccc(S(=O)(=O)N(CC(=O)NCCSc2ccccn2)c2ccccc2F)cc1 | inconclusive [inhibitor, single point]
COc1ccc(NC(=S)NC(=O)c2cccnc2)cc1 | inconclusive [inhibitor, single point]
Cc1cc2oc(=O)c(CC(=O)NCCCN(C)C)c(C)c2c2occ(C(C)(C)C)c12 | inconclusive [inhibitor, single point]
Cc1ccc(C2=NOC(=O)/C2=C\C=C\c2ccccc2)cc1 | inconclusive [inhibitor, single point]
CNc1nc(Nc2ccc(Br)cc2)nc(N)c1[N+](=O)[O-] | inconclusive [inhibitor, single point]
CCCC[C@H]1COCCS(=O)(=O)N1Cc1ccc(C)cc1 | inactive
CN(C)c1cc[n+](Cc2c(Cl)cccc2Cl)cc1 | inconclusive [inhibitor, single point]
O=C(c1ccc(Cl)cc1)C(CN1CCCC1)c1ccccc1 (centres undefined) | active: 5.62 µM
COc1cc(CNCCNC(=O)c2nonc2N)ccc1OCc1ccc(Cl)cc1 | inconclusive [inhibitor, partial curve]
O=C(COC(=O)c1cccc(S(=O)(=O)N2CCc3ccccc32)c1)Nc1ccc(Cl)cn1 | inactive
O=C(CN1C(=O)CCC1=O)Nc1nc(-c2ccc3ccccc3c2)cs1 | inconclusive [inhibitor, single point]
COc1cccc(C(=O)Cn2c(=N)n(C)c3ccccc32)c1 | inconclusive [inhibitor, single point]
O=C(NCc1ccc(Cl)cc1)C(=O)NCC(c1cccnc1)N1CCN(c2ccc(F)cc2)CC1 (centres undefined) | inconclusive [inhibitor, single point]
C=CCOc1ccccc1CN(C(=O)CCl)c1ccc2c(c1)OCO2 | inconclusive [inhibitor, single point]
CCC(C)c1ccc(NC(=O)COc2c(F)c(F)c(C(F)(F)F)c(F)c2F)cc1 (centres undefined) | inconclusive [inhibitor, single point]
CCCCC(CC)C(=O)NCc1ccc(F)cc1 (centres undefined) | inactive
CN1CCN(NC(=S)NC(C)(C)CC(C)(C)C)CC1 | active: 17.8 µM
O=[N+]([O-])c1ccc(O)c(/C=N/Nc2ccccn2)c1 | active: 11.2 µM
CCC(=O)Nc1cccc(-c2ccc(N3CCN(C)CC3)nn2)c1 | inconclusive [inhibitor, single point]
CCCCCn1c(NCc2ccco2)nc2ccccc21 | inactive
O=C(/C=C1\C(=O)Nc2ccccc21)/C=C1\C(=O)Nc2ccccc21 | active: 10 µM
O=C(Nc1nc(=O)c2ccccc2s1)c1ccccc1 | active: 6.31 µM
COc1ccc(Cl)cc1NC(=O)CN1c2ccccc2CC1C (centres undefined) | inconclusive [inhibitor, single point]
CC(=O)c1c(C)nc(Nc2nc(C)c3cc(C)ccc3n2)nc1C | inconclusive [inhibitor, partial curve]
